For 90 molecules, viability index results are on record in the supplement of paper PMC4723716.

Each structure is given as a SMILES string. Whole data set: some 3,600 compounds, median “viability index relative to DMSO control” near 0.81, cut for the lowest 2% near 0.13. Some of the results follow.
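Further: 384-well serum-free SaLSSA: MitoTracker Red CMXRos staining with saponin lysis, high-content imaging, treated-well particle count divided by plate-mean count of DMSO wells.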

The assay deals with Plasmodium falciparum NF54 stage V gametocytes. As to the kind of experiment: viability index relative to DMSO control (fraction); higher = less gametocyte killing. To be noted: 1.25 µM, incubation time: 72 h.
Turning to `c1ccc(OCCOc2ccc(Nc3ccnc4cc5ccccc5cc34)cc2)cc1`, the viability index was determined as 0.527.

With `Cc1ccc(OCCCCN2CCOCC2)c([N+](=O)[O-])c1`, the viability index amounted to 0.798.

For `O=c1cc(NC2CCN(CCCc3ccccc3)CC2)c2cc(Cl)ccc2o1`, the viability index was 0.638.

Turning to `COc1ccc(Nc2nc(NN=Cc3cccc([N+](=O)[O-])c3)nc(Nc3ccc([N+](=O)[O-])cc3)n2)cc1`, the viability index was determined as 0.66.

Molecule `CCCCNC(=O)CCCNC(=O)Cn1cnc2sc3c(c2c1=O)CCCC3` yielded a viability index of 0.812.

Consider `CC(C)NCC(O)Cn1c2ccc(Br)cc2c2cc(Br)ccc21` (stereo not given), for which the viability index was determined as 0.291.

In the case of `CCOC(=O)c1cnc2c(C)cccc2c1Nc1ccc(C(C)=O)cc1`, the viability index came to 1.08.

`CC(C)(C)c1ccc(C2CC3=Nc4ccccc4N(C(=O)c4ccccc4Cl)C(c4ccc(F)cc4)C3=C(O)C2)cc1` (stereo not given) came in with a viability index of 0.491.

On to `CCOC(=O)c1cnc2c(OC)cccc2c1Nc1cccc(C(F)(F)F)c1`, for which the viability index came to 0.601.

On to `c1ccc(C2=Nc3ccccc3C(c3ccccc3)(c3ccccc3)N2)cc1`, for which the viability index was 0.75.

`COc1ccc(-c2nc3cc(Cc4ccc5[nH]c(-c6ccc(OC)cc6)nc5c4)ccc3[nH]2)cc1` gave a viability index of 0.807.

`CCCOC(=O)C1=C(C)NC2=C(C(=O)CC(c3ccc(OC)c(OC)c3)C2)C1c1ccccc1Br` (stereo not given): the viability index came to 0.456.

For `CCCCOC(=O)C1=C(C)NC2=C(C(=O)CCC2)C1c1ccc(Cl)c(Cl)c1` (stereo not given), the viability index amounted to 0.721.

In the case of `CCC1=[N+](C)c2cccc3cccc(c23)N1C`, the viability index turned out to be 0.685.

Consider `Cc1ccc(N=Nc2nc3ccccc3n2C)c(C)c1`, for which the viability index stood at 0.333.

The molecule `OC(CN1CCN(Cc2ccccc2)CC1)Cn1c2ccc(Br)cc2c2cc(Br)ccc21` (stereo not given) gave a viability index of 0.279.

Consider `CCCCn1c(NN=C2C(=O)Nc3ccccc32)nc2c1c(=O)[nH]c(=O)n2C`, for which the viability index was 0.785.

On to `Clc1ccc2c(c1)c(-c1ccccc1)nc1nnnn12`, for which the viability index was 1.

The molecule `COc1ccccc1N1C(=N)SC(=Cc2ccc(N(C)C)cc2)C1=O` showed a viability index of 0.908.

On to `CC(C)(C)c1ccc(O)c(CNC2CCCCC2)c1`, for which the viability index stood at 0.534.

For `COc1ccc(CCN2C(=S)NC3c4cccc(OC)c4OC2(C)C3C(=O)Nc2ccc(C)cc2C)cc1OC` (stereo not given), the viability index came to 0.378.

`Cc1ccc(N2C(N)=NC(N)=NC2(C)C)c(C)c1` came in with a viability index of 1.15.

Turning to `CC(C)CN1C(=O)c2ccccc2C(C(=O)Nc2cc(F)ccc2F)C1c1cccs1` (stereo not given), the viability index amounted to 0.53.

In the case of `CC(=O)N(C1=C(N2CCCCCC2)C(=O)c2ccccc2C1=O)C1CCCCC1`, the viability index was found to be 0.74.

With `OC(CN1CCN(Cc2ccccc2)CC1)Cn1c2ccc(I)cc2c2cc(I)ccc21` (stereo not given), the viability index worked out at 0.442.

`CCCOC(=O)C1=C(C)NC2=C(C(=O)CC(c3ccc(OC)c(OC)c3)C2)C1c1cccc(C)c1` (stereo not given) displayed a viability index of 0.61.

For the molecule `Cn1cc([N+](=O)[O-])c(C(=O)NN=Cc2c[nH]c3ccccc23)n1`, the viability index came out at 1.14.

In the case of `Oc1ccc(-c2ccccc2)cc1CN1CCCCCC1`, the viability index was determined as 0.264.

Regarding `COc1cccc(NC(=O)c2sc3ncn(CC(=O)N4CCN(c5ccccn5)CC4)c(=O)c3c2C)c1`, the viability index was determined as 0.967.

`CC(=NNC(=O)C(=Cc1ccc([N+](=O)[O-])cc1)NC(=O)c1ccccc1)c1ccccn1` displayed a viability index of 0.661.

For `COc1ccc(C2SCCN2S(=O)(=O)c2cccc([N+](=O)[O-])c2)cc1OC` (stereo not given), the viability index was 1.29.

The molecule `COc1ccc(OC)c(C2CC(=O)C3=C(C2)NC(=O)CC3c2ccc(OC)c(OC)c2)c1` (stereo not given) gave a viability index of 0.747.

As to `COc1ccc(OC)c(-c2ccc(O)c(CNCC3CC4C=CC3C43CC3)c2)c1` (stereo not given), the viability index amounted to 0.317.

For the molecule `COc1ccc(Nc2nc(-c3cc4cc(OC)ccc4oc3=O)cs2)c(OC)c1`, the viability index is 0.924.

`Cc1cc(C(=O)N2CCOc3c(cc(-c4csc5ccccc45)cc3OCCc3ccccn3)C2)n(C)n1` displayed a viability index of 0.365.

Regarding `O=C(O)CSC(C(=O)Nc1ccc(Cl)cc1)c1ccccc1` (stereo not given), the viability index is 0.865.

As to `CCc1nc2nc(C)cc(Nc3ccc(F)c(Cl)c3)n2n1`, the viability index stood at 1.11.

Take `CC[n+]1ccc(C=Cc2ccc(N(C)C)cc2)cc1`: the viability index came out at 1.03.

For the molecule `CCOC(=O)c1ccc(-c2c(-c3cc(CC)c(OC)cc3O)noc2C)o1`, the viability index turned out to be 0.857.

Regarding `O=C(C1CC1)N1CCOc2c(cc(-c3csc4ccccc34)cc2OCCc2ccccn2)C1`, the viability index was 0.423.

Molecule `CSc1cccc(NC(=O)C2C3C=CC4(O3)C2C(=O)N(Cc2ccc(F)cc2)C4C(=O)NC2CCCC(C)C2C)c1` (stereo not given) came in with a viability index of 1.22.

Regarding `Cc1cc(C)cc(NC(=S)NNc2ccnc3cc(Cl)ccc23)c1`, the viability index worked out at 0.614.

`Oc1c2c(nc3cc(-c4ccccc4)nn13)CCCC2` showed a viability index of 0.71.

With `O=C(Nc1ccccc1[N+](=O)[O-])C1CC1(c1ccccc1)c1ccccc1` (stereo not given), the viability index is 1.09.

`CCCOC(=O)C1=C(C)NC2=C(C(=O)CC(c3ccc(OC)cc3)C2)C1c1cccc(Cl)c1Cl` (stereo not given): the viability index amounted to 0.679.

Regarding `O=C(Nc1ccc(Cl)cc1)c1c2c(nc3ccccc13)-c1ccccc1CC2`, the viability index was 0.522.

Regarding `Cc1cc(C=C2Sc3ccccc3N2C)[n+](C)c2ccccc12`, the viability index was 0.606.

Consider `CNC(=O)[C@@H]1C[C@@H](NCc2ccc(OC)cc2)CN1Cc1ccccc1`, for which the viability index came out at 1.15.

Regarding `COc1ccc(C=C2SC(=N)N(c3ccc4c(c3)OCO4)C2=O)cc1OC`, the viability index was found to be 0.74.

In turn, `COc1ccc(Br)cc1S(=O)(=O)N1CCCc2ccccc21` came in with a viability index of 0.731.

Molecule `CCC(C)(C)c1ccc(OCCOCC[n+]2ccccc2)c(C(C)(C)CC)c1` showed a viability index of 0.374.

In the case of `CC1CC2(C)Oc3ccccc3CC2C(C)C1CNCCCN(C)C` (stereo not given), the viability index is 0.294.

The molecule `Fc1ccc(Nc2nc(NCc3ccccc3)c3ccccc3n2)cc1` showed a viability index of 0.883.

The molecule `O=C1NCCN1CCNS(=O)(=O)c1cc(C(F)(F)F)cc(C(F)(F)F)c1` returned a viability index of 0.867.

Regarding `CCOC(=O)c1c(S(=O)(=O)N2CCCC(C(=O)N3CCN(c4cccc(C)c4C)CC3)C2)c(C)n(C)c1C` (stereo not given), the viability index was 0.699.

`COc1ccc(-n2cnc3cc(NCc4nc5ccccc5n4C)ccc32)cc1` came in with a viability index of 0.755.

`OCCNCCNCc1ccc2[nH]c3ccccc3c2c1`: the viability index was 0.687.

Regarding `O=C(O)c1c[nH]c2cc(N3CCCCCC3)c(F)cc2c1=O`, the viability index was found to be 1.05.

Consider `CCCCCCOc1ccc(NC(=O)c2cccs2)cc1`, for which the viability index worked out at 0.518.

On to `Cc1cc(=O)oc2c1ccc1oc(C(=O)c3ccccc3)c(C)c12`, for which the viability index was determined as 1.

The molecule `O=S(=O)(Nc1cc(Sc2nc[nH]n2)c(O)c2ccccc12)c1ccc(F)cc1` had a viability index of 0.786.

As to `O=C(c1ccc(-n2c(SCc3ccc(Cl)cc3)nc3ccccc3c2=O)cc1)N1CCOCC1`, the viability index was determined as 0.975.

For the molecule `CCNc1ncnc2sc(C(=O)NCc3csc(C)n3)c(C)c12`, the viability index was determined as 1.03.

With `Cc1ccc(C(=O)C(C)[n+]2ccc(N(C)C)cc2)cc1` (stereo not given), the viability index worked out at 1.14.

Molecule `COc1ccc(-c2c[n+](Cc3ccc(Cl)c(Cl)c3)c3n2CCC3)cc1` yielded a viability index of 0.686.

As to `COc1ccc(C2CC(c3cccs3)=NN2C(=O)CSc2nnc(CNC(=O)c3cccs3)n2-c2cc(C)ccc2C)cc1` (stereo not given), the viability index turned out to be 0.686.

In turn, `O=C(NC1CC1)c1ccc(CSCc2ccccc2Cl)o1` displayed a viability index of 0.813.

With `Cc1cc(I)ccc1N1C(=O)C2C3c4ccccc4C(CO)(c4ccccc43)C2C1=O` (stereo not given), the viability index was found to be 1.06.

With `ClC12CC3CC(C1)CC(n1nnc4ccccc41)(C3)C2`, the viability index turned out to be 0.918.

The molecule `Cc1ccc2c(C)nc(NC(=N)N)nc2c1` registered a viability index of 1.07.

In the case of `COc1ccc(-[n+]2cc(-c3ccc(Br)cc3)n3c2SCCC3)cc1`, the viability index came to 1.06.

In the case of `Cc1nc2ccc(-c3ccc4nc(C)[nH]c4c3)cc2[nH]1`, the viability index is 0.906.

As to `Cc1ccc(N=C2NC(=O)C(=Cc3cc(C)n(-c4cccc([N+](=O)[O-])c4)c3C)S2)cc1`, the viability index is 0.494.

Consider `CCCc1nc2ccc(NC(=O)c3ccccc3F)cc2c(=O)n1Cc1ccc(-c2ccccc2)cc1`, for which the viability index was 0.735.

Take `CCC(CO)Nc1nccnc1-c1ccccc1Oc1ccccc1` (stereo not given): the viability index came to 0.827.

Turning to `OC1(c2ccc(Br)cc2)CCN(C2CCN(Cc3ccccc3)CC2)CC1`, the viability index stood at 0.896.

For the molecule `CCCn1c(-c2cccc(Br)c2)nc2ccccc21`, the viability index worked out at 0.94.

Consider `CCOC(=O)C1=C(C)NC2=C(C(=O)CC(C)(C)C2)C1c1ccc(Cl)cc1` (stereo not given), for which the viability index stood at 0.659.

`COc1ccc(-c2cn3c([n+]2-c2ccccc2)SCC3)cc1` showed a viability index of 1.23.

For the molecule `Cc1ccc(C(=O)Nc2ccc(-c3nc4ccc(NC(=O)c5ccc(C)cc5)cc4[nH]3)cc2)cc1`, the viability index is 1.39.

As for `CCCOC(=O)C1=C(C)NC2=C(C(=O)CC(c3ccc(OC)c(OC)c3)C2)C1c1cccc(Cl)c1Cl` (stereo not given), the viability index was 0.506.

`Cc1ccccc1Cn1c(=N)n(CC(O)c2ccc(Cl)c(Cl)c2)c2ccccc21` (stereo not given) displayed a viability index of 0.291.

Molecule `CC[n+]1c(C=C2Sc3cc(C)ccc3N2CCO)ccc2ccccc21` registered a viability index of 0.807.

In the case of `Cc1ccccc1Nc1sc(C(=O)c2ccc([N+](=O)[O-])cc2)c(N)c1C(=O)Nc1ccccc1`, the viability index turned out to be 0.968.

In turn, `C=CC[n+]1c(C=C2C=CN(C)C=C2)sc2ccccc21` came in with a viability index of 1.1.

Consider `CCNc1nc(OC)nc(Oc2ccc(=O)n(-c3ccccc3)n2)n1`, for which the viability index is 0.591.

Molecule `CN(C)CCCNc1ncnc2c1[nH]c1ccc(F)cc12` had a viability index of 0.991.

Consider `C=CCn1cc(C=NNc2nc3ccccc3[nH]2)c2ccccc21`, for which the viability index was determined as 0.49.

`CC(C)CN1C(=O)c2ccccc2C(C(=O)Nc2ccc(CN3CCC(C)CC3)cc2)C1c1cccs1` (stereo not given) gave a viability index of 0.321.

`CCC(CO)NCC(O)Cn1c2ccc(Br)cc2c2cc(Br)ccc21` (stereo not given) displayed a viability index of 0.564.
